Assay results published in the antibiotic and cytotoxicity screens of Wong et al. (2023).
Some of the results follow.

Legend:
[1] = tested on: HSkMC (human skeletal muscle cells); assay: cytotoxicity call (relative viability < 0.9); conditions: 10 µM
[2] = tested on: HepG2; assay: cytotoxicity call (relative viability < 0.9); conditions: 10 µM
[3] = tested on: S. aureus RN4220; assay: growth inhibition call (relative growth <= 0.2); conditions: 50 µM

Row | Structure (SMILES) | cytotoxicity call [1] | cytotoxicity call [2] | growth inhibition call [3]
1 | C[C@H](CO)N1C[C@H](C)[C@@H](CN(C)Cc2ccncc2)Oc2ccc(NS(=O)(=O)c3cn(C)cn3)cc2CC1=O | inactive | inactive | inactive
2 | Cn1cnc(S(=O)(=O)N2C[C@H](O)COC[C@@H]3O[C@H](CC(=O)NC4CCC4)CC[C@H]32)c1 | inactive | inactive | inactive
3 | C[C@@H]1CCCCO[C@@H](CN(C)C(=O)NC2CCCCC2)[C@@H](C)CN([C@H](C)CO)C(=O)c2cc(NC(=O)NC3CCCCC3)ccc2O1 | inactive | inactive | inactive
4 | CC(C)=CCCC1(C)C=Cc2c(O)c3c(c(CC=C(C)C)c2O1)OC12C(=CCCC1C(C)(C)OC2(CC=C(C)C(=O)O)C(=O)O)C3=O (stereo unspecified) | inactive | inactive | active
5 | C[C@H](CO)N1C[C@H](C)[C@@H](CN(C)C(=O)Nc2ccccc2)OCCCC[C@H](C)Oc2ccc(NC(=O)NC3CCCCC3)cc2C1=O | inactive | inactive | inactive
6 | C[C@@H]1CN([C@@H](C)CO)C(=O)c2cccc(NC(=O)c3ccc(-c4nccs4)cc3)c2O[C@H]1CN(C)S(=O)(=O)c1cn(C)cn1 | inactive | inactive | inactive
7 | COc1ccc(NC(=O)N(C)C[C@@H]2Oc3ccc(NC(=O)CCCCCC(=O)Nc4ccccc4N)cc3C(=O)N([C@H](C)CO)C[C@H]2C)cc1 | inactive | inactive | inactive
8 | COCC#Cc1ccc([C@H]2[C@@H](CO)N3C(=O)CN(C(=O)c4ccncc4)C[C@H]23)cc1 | inactive | inactive | inactive
9 | COc1cc(C(=O)O)ccc1NC(=O)[C@@H]1N[C@@H](CC(C)(C)C)[C@](C#N)(c2ccc(Cl)cc2F)[C@H]1c1cccc(Cl)c1F | active | inactive | inactive
10 | CC(C)=CCC/C(C)=C/C=C/C(C)=C/C=C/C(C)=C/C=C/C=C(C)/C=C/C=C(C)/C=C/C=C(\C)CCC=C(C)C | inactive | inactive | inactive
11 | CO[C@@H]1CN(C)C(=O)c2ccc(NC(=O)C3CC3)cc2OC[C@H](C)N(C(=O)C2CCOCC2)C[C@@H]1C | inactive | inactive | inactive
12 | CNC(=O)C[C@@H]1CC[C@H]2[C@@H](COC[C@H](O)CN2C(=O)c2ccccn2)O1 | inactive | inactive | inactive
13 | Nc1nccc2c1ncn2[C@@H]1C=C(CO)[C@@H](O)[C@H]1O | inactive | inactive | inactive
14 | C[C@H](O)C#Cc1ccc2c(c1)O[C@@H](CN(C)C)[C@@H](C)CN([C@H](C)CO)S2(=O)=O | inactive | inactive | inactive
15 | O=C(NCc1ccc(F)cc1)[C@@H]1[C@@H](CO)[C@@H]2Cn3c(cccc3=O)[C@H]1N2C(=O)c1cnccn1 | inactive | inactive | inactive
16 | O=C(C[C@H]1C=C[C@H](NC(=O)c2ccc(F)cc2)[C@H](CO)O1)NCc1ccncn1 | inactive | inactive | inactive

Row | Structure (SMILES) | cytotoxicity call [1] | cytotoxicity call [2] | growth inhibition call [3]
17 | Cc1cc(SC(=O)N/C=C/c2ccco2)c(C)cc1Cl | inactive | inactive | inactive
18 | C[C@H]1CN([C@@H](C)CO)C(=O)c2c(c3ccccc3n2C)-c2ccccc2CO[C@H]1CN(C)C(=O)Nc1ccccc1C(F)(F)F | inactive | inactive | inactive
19 | COCC(=O)N(C)C[C@@H]1Oc2cc(C#C[C@@H](C)O)ccc2S(=O)(=O)N([C@@H](C)CO)C[C@H]1C | inactive | inactive | inactive
20 | COc1ccc([C@@H]([C@H](Cc2ccccc2)OC(C)=O)N2C[C@H]3[C@H]([C@@H](OC(C)=O)c4ccccc4)ON(C)[C@H]3[C@@H]2Cc2ccccc2)cc1 | inactive | active | inactive
21 | C=CC[C@@H](CC(=O)NCCO)C(=O)N[C@H](COC(=O)[C@H](CC=C)CC(=O)OC(C)(C)C)Cc1c[nH]c2ccccc12 | inactive | inactive | inactive
22 | NC(=S)c1ccc(-n2cncn2)nc1 | inactive | inactive | inactive
23 | c1n[nH]nc1SSc1cn[nH]n1 | inactive | inactive | active
24 | COC[C@H]1CN(CC2CC2)Cc2nnn(C)c21 | inactive | inactive | inactive
25 | Cc1noc(C)c1S(=O)(=O)Nc1ccc2c(c1)CC(=O)N([C@H](C)CO)C[C@H](C)[C@@H](CN(C)C(=O)Nc1ccccc1)O2 | inactive | inactive | inactive
26 | Cc1ccc(S(=O)(=O)N(C)C[C@H]2Oc3ccc(NS(=O)(=O)c4ccccc4)cc3CC(=O)N([C@H](C)CO)C[C@H]2C)cc1 | inactive | inactive | inactive
27 | O=C(C[C@@H]1CC[C@H]2[C@@H](COC[C@@H](O)CN2C(=O)c2ccc(F)cc2)O1)NCCCN1CCOCC1 | inactive | inactive | inactive
28 | CC(C)=CCC/C(C)=C/C(=O)O | inactive | inactive | inactive
29 | COCC(=O)N1[C@@H]2c3ccc(C4=CCCCC4)c(=O)n3C[C@@H]2[C@@H](CO)[C@@H]1C(=O)N1CCN(C)CC1 | inactive | inactive | inactive
30 | COc1ccc(S(=O)(=O)Nc2ccc3c(c2)C(=O)N([C@H](C)CO)C[C@@H](C)[C@H](CN(C)Cc2ccncc2)O3)cc1 | inactive | inactive | inactive
31 | COCCN1CC[C@@H](CO)C1 | inactive | inactive | inactive
32 | Cc1ccc(S(=O)(=O)N[C@@H](Cc2ccccc2)C(=O)NCCn2cc(CCC(=O)NO)nn2)cc1 | inactive | active | inactive
